Source: publication PMC9911399, “Two distinct binding modes provide the RNA-binding protein RbFox with extraordinary sequence specificity”
Changes are numbered by the printed parent chain; changes in the protein carry UniProt numbers. This is one part of the list.

T1: RBFOX1 RRM RbFoxmut (Fox-RRM*) (Homo sapiens, UniProt Q9NWB1 109-208, R118D;E147R;N151S;E152T)
T1 sequence: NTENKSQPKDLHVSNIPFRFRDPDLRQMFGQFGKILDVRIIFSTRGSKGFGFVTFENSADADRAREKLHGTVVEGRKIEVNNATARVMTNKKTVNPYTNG

B1: CGAGCAU (DNA:RNA)
RNA: GGGAGACCGGAAUUCAGAUUGUCCCGAGCAUUUAAAUCCCGUCGUAGCCACCA
DNA 1: CAATCTGAATTCCGGTCTCCC
DNA 2: TGGTGGCTACGACGGGATT
B2: AGGCUGC (DNA:RNA)
RNA: B1 RNA with C25A, A27G, G28C, C29U, A30G, U31C
DNA 1: CAATCTGAATTCCGGTCTCCC
DNA 2: TGGTGGCTACGACGGGATT
B3: CAUUGUA (DNA:RNA)
RNA: B1 RNA with G26A, A27U, G28U, C29G, A30U, U31A
DNA 1: CAATCTGAATTCCGGTCTCCC
DNA 2: TGGTGGCTACGACGGGATT
B4: GCCCGCG (DNA:RNA)
RNA: GGGAGACCGGAAUUCAGAUUGUCCGCCCGCGUUAAAUCCCGUCGUAGCCACCA
DNA 1: CAATCTGAATTCCGGTCTCCC
DNA 2: TGGTGGCTACGACGGGATT
B5: UCACGUC (DNA:RNA)
RNA: B4 RNA with G25U, C27A, C30U, G31C
DNA 1: CAATCTGAATTCCGGTCTCCC
DNA 2: TGGTGGCTACGACGGGATT
B6: GCAUUAA (DNA:RNA)
RNA: B1 RNA with C25G, G26C, G28U, C29U, U31A
DNA 1: CAATCTGAATTCCGGTCTCCC
DNA 2: TGGTGGCTACGACGGGATT
B7: ACGAGUU (DNA:RNA)
RNA: B4 RNA with G25A, C27G, C28A, C30U, G31U
DNA 1: CAATCTGAATTCCGGTCTCCC
DNA 2: TGGTGGCTACGACGGGATT
B8: ACGAUAC (DNA:RNA)
RNA: B1 RNA with C25A, G26C, A27G, G28A, C29U, U31C
DNA 1: CAATCTGAATTCCGGTCTCCC
DNA 2: TGGTGGCTACGACGGGATT
B9: CGUGUUU (DNA:RNA)
RNA: B1 RNA with A27U, C29U, A30U
DNA 1: CAATCTGAATTCCGGTCTCCC
DNA 2: TGGTGGCTACGACGGGATT
B10: CCCGCAC (DNA:RNA)
RNA: B1 RNA with G26C, A27C, U31C
DNA 1: CAATCTGAATTCCGGTCTCCC
DNA 2: TGGTGGCTACGACGGGATT
B11: AAUAGAC (DNA:RNA)
RNA: B1 RNA with C25A, G26A, A27U, G28A, C29G, U31C
DNA 1: CAATCTGAATTCCGGTCTCCC
DNA 2: TGGTGGCTACGACGGGATT
B12: CGAGCCA (DNA:RNA)
RNA: B1 RNA with A30C, U31A
DNA 1: CAATCTGAATTCCGGTCTCCC
DNA 2: TGGTGGCTACGACGGGATT
B13: UGCUCCU (DNA:RNA)
RNA: B1 RNA with C25U, A27C, G28U, A30C
DNA 1: CAATCTGAATTCCGGTCTCCC
DNA 2: TGGTGGCTACGACGGGATT
B14: UAACCUA (DNA:RNA)
RNA: B1 RNA with C25U, G26A, G28C, A30U, U31A
DNA 1: CAATCTGAATTCCGGTCTCCC
DNA 2: TGGTGGCTACGACGGGATT
B15: GCGAAAC (DNA:RNA)
RNA: B4 RNA with C27G, C28A, G29A, C30A, G31C
DNA 1: CAATCTGAATTCCGGTCTCCC
DNA 2: TGGTGGCTACGACGGGATT
B16: UUUCACA (DNA:RNA)
RNA: B4 RNA with G25U, C26U, C27U, G29A, G31A
DNA 1: CAATCTGAATTCCGGTCTCCC
DNA 2: TGGTGGCTACGACGGGATT
B17: AGCGAGU (DNA:RNA)
RNA: B1 RNA with C25A, A27C, C29A, A30G
DNA 1: CAATCTGAATTCCGGTCTCCC
DNA 2: TGGTGGCTACGACGGGATT
B18: UAUGGUA (DNA:RNA)
RNA: B1 RNA with C25U, G26A, A27U, C29G, A30U, U31A
DNA 1: CAATCTGAATTCCGGTCTCCC
DNA 2: TGGTGGCTACGACGGGATT
B19: UUUGGAG (DNA:RNA)
RNA: B1 RNA with C25U, G26U, A27U, C29G, U31G
DNA 1: CAATCTGAATTCCGGTCTCCC
DNA 2: TGGTGGCTACGACGGGATT
B20: UCGGAGA (DNA:RNA)
RNA: B1 RNA with C25U, G26C, A27G, C29A, A30G, U31A
DNA 1: CAATCTGAATTCCGGTCTCCC
DNA 2: TGGTGGCTACGACGGGATT
B21: UUUUGCG (DNA:RNA)
RNA: B4 RNA with G25U, C26U, C27U, C28U
DNA 1: CAATCTGAATTCCGGTCTCCC
DNA 2: TGGTGGCTACGACGGGATT
B22: CCUGUGG (DNA:RNA)
RNA: B1 RNA with G26C, A27U, C29U, A30G, U31G
DNA 1: CAATCTGAATTCCGGTCTCCC
DNA 2: TGGTGGCTACGACGGGATT
B23: CACCGAG (DNA:RNA)
RNA: B4 RNA with G25C, C26A, C30A
DNA 1: CAATCTGAATTCCGGTCTCCC
DNA 2: TGGTGGCTACGACGGGATT
B24: AAUGACA (DNA:RNA)
RNA: B1 RNA with C25A, G26A, A27U, C29A, A30C, U31A
DNA 1: CAATCTGAATTCCGGTCTCCC
DNA 2: TGGTGGCTACGACGGGATT
B25: CGCUUGU (DNA:RNA)
RNA: B1 RNA with A27C, G28U, C29U, A30G
DNA 1: CAATCTGAATTCCGGTCTCCC
DNA 2: TGGTGGCTACGACGGGATT
B26: GGUGAGC (DNA:RNA)
RNA: B1 RNA with C25G, A27U, C29A, A30G, U31C
DNA 1: CAATCTGAATTCCGGTCTCCC
DNA 2: TGGTGGCTACGACGGGATT
B27: CGUGCAA (DNA:RNA)
RNA: B1 RNA with A27U, U31A
DNA 1: CAATCTGAATTCCGGTCTCCC
DNA 2: TGGTGGCTACGACGGGATT
B28: CUAUUUC (DNA:RNA)
RNA: B1 RNA with G26U, G28U, C29U, A30U, U31C
DNA 1: CAATCTGAATTCCGGTCTCCC
DNA 2: TGGTGGCTACGACGGGATT
B29: CUUCCGG (DNA:RNA)
RNA: B1 RNA with G26U, A27U, G28C, A30G, U31G
DNA 1: CAATCTGAATTCCGGTCTCCC
DNA 2: TGGTGGCTACGACGGGATT
B30: GAUGCGA (DNA:RNA)
RNA: B1 RNA with C25G, G26A, A27U, A30G, U31A
DNA 1: CAATCTGAATTCCGGTCTCCC
DNA 2: TGGTGGCTACGACGGGATT
B31: AGUAACU (DNA:RNA)
RNA: B1 RNA with C25A, A27U, G28A, C29A, A30C
DNA 1: CAATCTGAATTCCGGTCTCCC
DNA 2: TGGTGGCTACGACGGGATT

The binders below were run against T1, RBFOX1 RRM RbFoxmut (Fox-RRM*) (assay: EMSA; HiTS-Eq, 1 nM pool, 10 min; buffer printed only for the single-RNA assays: 10 mM Tris pH 7.5, 150 mM NaCl, 3.4 mM EDTA, 0.001% NP-40, 30 C). Settings: tags: His6 N-terminal (pET28a); label: 5' 32P.
How it was run: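 Purified wild-type or mutant RbFox RRM at increasing concentrations was equilibrated with 1 nM of 5′-radiolabelled RNA carrying 7 randomized nucleotides for 10 min in 50 µL. Unbound RNA was separated by 8% native PAGE and sequenced. Relative association constants came from read-count changes of each RNA species compared with the control reaction, normalised to the cognate motif.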

| Binder | binding signal |
| --- | --- |
| B1 | 0.105 KA relative to UGCAUGU |
| B2 | 0.105 KA relative to UGCAUGU |
| B3 | 0.265 KA relative to UGCAUGU |
| B4 | 0.103 KA relative to UGCAUGU |
| B5 | 0.0971 KA relative to UGCAUGU |
| B6 | 0.141 KA relative to UGCAUGU |
| B7 | 0.129 KA relative to UGCAUGU |
| B8 | 0.118 KA relative to UGCAUGU |
| B9 | 0.0886 KA relative to UGCAUGU |
| B10 | 0.0907 KA relative to UGCAUGU |
| B11 | 0.0757 KA relative to UGCAUGU |
| B12 | 0.0942 KA relative to UGCAUGU |
| B13 | 0.0578 KA relative to UGCAUGU |
| B14 | 0.0804 KA relative to UGCAUGU |
| B15 | 0.0542 KA relative to UGCAUGU |
| B16 | 0.0896 KA relative to UGCAUGU |

| Binder | binding signal |
| --- | --- |
| B17 | 0.139 KA relative to UGCAUGU |
| B18 | 0.152 KA relative to UGCAUGU |
| B19 | 0.139 KA relative to UGCAUGU |
| B20 | 0.0882 KA relative to UGCAUGU |
| B21 | 0.146 KA relative to UGCAUGU |
| B22 | 0.0709 KA relative to UGCAUGU |
| B23 | 0.104 KA relative to UGCAUGU |
| B24 | 0.0636 KA relative to UGCAUGU |
| B25 | 0.256 KA relative to UGCAUGU |
| B26 | 0.0842 KA relative to UGCAUGU |
| B27 | 0.0738 KA relative to UGCAUGU |
| B28 | 0.0582 KA relative to UGCAUGU |
| B29 | 0.0369 KA relative to UGCAUGU |
| B30 | 0.0634 KA relative to UGCAUGU |
| B31 | 0.0997 KA relative to UGCAUGU |
